# Test results published in the supplement of paper PMC10369915.
# Some of the results follow. Rule as the data show it: active = 3.2 or more and inactive = the rest. The signal is at background level for most entries.
# Experiments:
# Assay in all cases: enrichment score (SH2-bound / input frequency) (ratio); bacterial display of known human phosphotyrosine sites (pTyr-Var adds point mutants) read by sequencing; higher = stronger binding; tyrosines were phosphorylated by kinases first
# Settings in all cases: peptide library: Human pTyr
# SHP2 C-SH2 domain E139D = target: SHP2 C-SH2 domain E139D
# [1] = target: SHP2 C-SH2 domain wild-type
# SHP2 N-SH2 domain L43F = target: SHP2 N-SH2 domain L43F
# SHP2 N-SH2 domain T42A = target: SHP2 N-SH2 domain T42A
# SHP2 N-SH2 domain T52S = target: SHP2 N-SH2 domain T52S
# [2] = target: SHP2 N-SH2 domain wild-type
# 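Also: displayed peptides selected on beads carrying the immobilized SH2 domain, with library peptides lacking any tyrosine serving as negative controls.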
Binder,enrichment score (SHP2 C-SH2 domain E139D),enrichment score [1],enrichment score (SHP2 N-SH2 domain L43F),enrichment score (SHP2 N-SH2 domain T42A),enrichment score (SHP2 N-SH2 domain T52S),enrichment score [2]
SKPPATDYVSTRWAR [ICK_HUMAN_159_YA],inactive: 1.46,inactive: 1.43,inactive: 1.46,inactive: 1.45,inactive: 1.3,inactive: 1.58
EIEACQVYFTADPAS [IL2RB_HUMAN_381_YA],inactive: 1.23,inactive: 1.26,inactive: 0.884,inactive: 1.19,inactive: 1.35,inactive: 1.31
AQDLARSYGIPAIET [HRAS_HUMAN_137_YA],inactive: 0.831,inactive: 0.645,inactive: 0.681,inactive: 0.589,inactive: 0.64,inactive: 0.637
ELLEQQKYTVTVDYW [IKBKB_HUMAN_199],inactive: 1.57,inactive: 1.38,inactive: 1.54,inactive: 1.35,inactive: 1.54,inactive: 1.53
DDITQEEYGEFAKSL [HSP90AB1_HUMAN_301_YA],inactive: 1.11,inactive: 1.02,inactive: 1.04,inactive: 1.08,inactive: 1.16,inactive: 1.53
GEEELSNYICMGGKG [IRS1_HUMAN_465],inactive: 1.1,inactive: 1.26,inactive: 1.01,inactive: 1.31,inactive: 1.14,inactive: 1.36
EVLEDNDYGRAVDWW [AKT1_HUMAN_326],inactive: 1.11,inactive: 0.822,inactive: 1.04,inactive: 0.944,inactive: 0.844,inactive: 0.967
GGGMPYQYPALTPEQ [ALDOA_HUMAN_5],inactive: 0.577,inactive: 0.531,inactive: 0.552,inactive: 0.475,inactive: 0.591,inactive: 0.574
NVTTCNDYVALVHPD [IF6_HUMAN_113],inactive: 0.988,inactive: 1.1,inactive: 0.957,inactive: 1.17,inactive: 1.2,inactive: 1.08
AEKSNLAYDIVQLPT [HSP74_HUMAN_89],inactive: 0.708,inactive: 0.87,inactive: 0.749,inactive: 0.817,inactive: 0.732,inactive: 0.859
KENQKHIYYITGETK [HS90A_HUMAN_492],inactive: 1.83,inactive: 2.56,inactive: 1.87,inactive: 1.74,inactive: 2.04,inactive: 2.44
VIAGNPAYRSFSNSL [IL4RA_HUMAN_497],inactive: 0.768,inactive: 0.661,inactive: 0.682,inactive: 0.69,inactive: 0.878,inactive: 0.753
TERIRLPYELQKMPN [HS74L_HUMAN_89],inactive: 1.07,inactive: 0.682,inactive: 0.675,inactive: 0.686,inactive: 0.839,inactive: 0.826
ACQVAFTYDPASEED [IL2RB_HUMAN_384_YA],inactive: 1.17,inactive: 1.01,inactive: 1.16,inactive: 1.09,inactive: 1.32,active: 3.82
KENQKHIYAITGETK [HS90A_HUMAN_492_YA],inactive: 1.32,inactive: 1.3,inactive: 1.13,inactive: 1.21,inactive: 1.07,inactive: 1.68
VSAPTSGYQEFVHAV [IL4RA_HUMAN_575],inactive: 0.867,inactive: 0.759,inactive: 0.659,inactive: 0.617,inactive: 0.845,inactive: 0.602
AASSNPEYLSASDVF [INSR_HUMAN_999_YA],inactive: 0.637,inactive: 0.592,inactive: 0.573,inactive: 0.418,inactive: 0.643,inactive: 0.576
FGMTRDIYETDYYRK [INSR_HUMAN_1185],inactive: 0.94,inactive: 0.762,inactive: 0.555,inactive: 0.888,inactive: 0.795,inactive: 1.08

Binder,enrichment score (SHP2 C-SH2 domain E139D),enrichment score [1],enrichment score (SHP2 N-SH2 domain L43F),enrichment score (SHP2 N-SH2 domain T42A),enrichment score (SHP2 N-SH2 domain T52S),enrichment score [2]
SLGFKRSYEEHIPYT [INSR_HUMAN_1355],inactive: 0.615,inactive: 0.646,inactive: 0.745,inactive: 0.669,inactive: 0.617,inactive: 0.898
FGMTRDVYETDYYRK [INSRR_HUMAN_1141],inactive: 0.848,inactive: 0.82,inactive: 0.752,inactive: 0.78,inactive: 0.759,inactive: 0.877
VELDLHSYDLGIENR [IDHC_HUMAN_42],inactive: 0.557,inactive: 0.636,inactive: 1.66,inactive: 0.599,inactive: 1.16,inactive: 0.737
DLPTHDGYLPSNIDD [I12R2_HUMAN_800],inactive: 0.793,inactive: 0.701,inactive: 0.815,inactive: 0.666,inactive: 0.747,inactive: 1.05
KLKKEDIYAVEIVGG [HSP74_HUMAN_336],inactive: 1.44,inactive: 1.15,inactive: 1.29,inactive: 1.38,inactive: 1.29,inactive: 1.4
TTALSMSYNLLGFLQ [IFNB_HUMAN_24],inactive: 1.15,inactive: 1.12,inactive: 1.1,inactive: 1.3,inactive: 1.59,inactive: 1.59
ELLEQQKYTVTVDAW [IKBKB_HUMAN_199_YA],inactive: 1.29,inactive: 1.02,inactive: 1.03,inactive: 1.17,inactive: 1.44,inactive: 1.44
EKATGRYYAMKILRK [AKT2_HUMAN_178],inactive: 1.8,inactive: 1.92,inactive: 2.03,inactive: 1.61,inactive: 1.71,inactive: 2.25
YLKIRRSYALVSLSF [INSR_HUMAN_401],inactive: 1.65,inactive: 1.67,inactive: 1.65,inactive: 1.77,inactive: 1.55,inactive: 1.58
SAEEHIPYTHMNGGK [INSR_HUMAN_1361_YA],inactive: 0.948,inactive: 0.881,inactive: 0.709,inactive: 0.66,inactive: 0.92,inactive: 0.76
FREVSFYYSEENKLP [IGF1R_HUMAN_1281],inactive: 1.1,inactive: 1.9,inactive: 1.61,inactive: 1.54,inactive: 1.44,inactive: 2.48
GLENGLNYIDLDLVK [IRS1_HUMAN_1179],inactive: 0.914,inactive: 0.656,active: 5.83,active: 4.02,active: 3.82,inactive: 1.82
THFPQFSYSASIREG [AKT2_HUMAN_475],inactive: 1.19,inactive: 1.08,inactive: 1.12,inactive: 1.35,inactive: 0.889,inactive: 1.18
EIEACQVYFTYDPYS [IL2RB_HUMAN_381],inactive: 1.64,inactive: 1.22,inactive: 1.53,inactive: 1.92,inactive: 1.57,inactive: 1.74
DVFPCSVYVPDEWEV [INSR_HUMAN_1011],inactive: 1.3,inactive: 1.14,inactive: 1.4,inactive: 1.25,inactive: 1.38,inactive: 1.37
DVAETDAYRKGGKGL [INSRR_HUMAN_1146_YA],inactive: 0.772,inactive: 0.691,inactive: 0.847,inactive: 0.724,inactive: 0.763,inactive: 0.897
TIPVDGDYFTFTRHE [AL1A2_HUMAN_168],inactive: 1.23,inactive: 0.814,inactive: 0.985,inactive: 0.994,inactive: 1.07,inactive: 1.31
FREVSFAYSEENKLP [IGF1R_HUMAN_1281_YA],inactive: 1.1,inactive: 0.687,inactive: 0.621,inactive: 0.837,inactive: 0.913,inactive: 0.879
